SMILES strings stand for the structures. Out of some 310,000 compounds screened, about 2,200 (0.71%) showed an effect of 50% or more. The effect is printed as a negative number. This is one part of the list.

The target in this assay is human ether-à-go-go-related gene (hERG) potassium channel (human, UniProt Q12809). Kind of assay: primary screen, population patch clamp on CHO cells stably expressing hERG.
Sequence of human ether-à-go-go-related gene (hERG) potassium channel (Q12809 whole entry, looked up): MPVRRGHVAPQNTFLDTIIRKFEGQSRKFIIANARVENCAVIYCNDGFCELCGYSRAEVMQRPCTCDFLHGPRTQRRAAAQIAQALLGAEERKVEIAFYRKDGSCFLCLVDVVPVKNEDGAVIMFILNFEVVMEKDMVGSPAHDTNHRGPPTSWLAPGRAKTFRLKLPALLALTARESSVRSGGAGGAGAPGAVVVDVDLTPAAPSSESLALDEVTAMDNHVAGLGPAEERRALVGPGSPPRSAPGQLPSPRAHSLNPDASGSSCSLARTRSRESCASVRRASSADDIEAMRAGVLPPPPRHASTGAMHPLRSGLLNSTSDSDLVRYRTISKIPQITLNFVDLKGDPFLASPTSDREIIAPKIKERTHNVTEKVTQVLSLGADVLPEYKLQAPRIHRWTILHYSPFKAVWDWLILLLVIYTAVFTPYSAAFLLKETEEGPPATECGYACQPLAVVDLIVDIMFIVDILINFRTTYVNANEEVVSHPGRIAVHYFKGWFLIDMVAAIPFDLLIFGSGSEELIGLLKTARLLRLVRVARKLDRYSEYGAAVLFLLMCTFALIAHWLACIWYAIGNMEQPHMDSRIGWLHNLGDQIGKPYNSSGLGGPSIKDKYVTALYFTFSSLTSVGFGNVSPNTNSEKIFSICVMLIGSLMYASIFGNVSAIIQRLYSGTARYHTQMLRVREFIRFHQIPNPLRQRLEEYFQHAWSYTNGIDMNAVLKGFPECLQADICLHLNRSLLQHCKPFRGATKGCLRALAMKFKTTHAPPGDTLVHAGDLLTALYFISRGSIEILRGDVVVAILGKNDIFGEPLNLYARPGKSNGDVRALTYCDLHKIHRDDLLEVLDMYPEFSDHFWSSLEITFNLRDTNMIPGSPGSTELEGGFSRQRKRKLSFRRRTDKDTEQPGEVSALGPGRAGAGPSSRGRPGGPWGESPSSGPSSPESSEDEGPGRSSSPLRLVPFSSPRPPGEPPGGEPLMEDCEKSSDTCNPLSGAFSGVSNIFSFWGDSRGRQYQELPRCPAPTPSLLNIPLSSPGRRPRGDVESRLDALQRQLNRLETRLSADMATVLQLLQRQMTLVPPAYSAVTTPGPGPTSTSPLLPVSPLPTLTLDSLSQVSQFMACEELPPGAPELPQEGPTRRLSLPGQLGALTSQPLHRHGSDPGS
Regarding `COc1ccccc1CC(=O)Nc1ccc(S(=O)(=O)N2CC(C)CC(C)C2)cc1` (stereo not drawn), the “hERG current change (%, negative = inhibition) at 1uM” value was 8.79%.
As for `O=C(CCNS(=O)(=O)c1ccccc1F)N1CCN(Cc2ccccc2)CC1`, the “hERG current change (%, negative = inhibition) at 1uM” value came to 8.79%.
For `O=C(c1cnn(-c2nc3ccccc3s2)c1)c1ccccc1O` the value was 12%.
With `Cn1c(N)c(C(=O)c2cc(-c3ccncc3)nc3ccccc23)c(=O)n(C)c1=O` the figure was 5.16%; with `Cc1ccc(NC(=S)NNC(=O)c2ccccc2OC(F)F)cc1`, 4.3%.
Take `CCN1CCN(C(=O)C(=O)c2cn(CC(=O)N(CC)CC)c3ccccc23)CC1`: the “hERG current change (%, negative = inhibition) at 1uM” value is listed as 12.6%.
With `COc1cccc(OCCOc2ccccc2OC(C)C)c1` the figure was 13%; with `c1ccn2cc(C34CC5CC(CC(C5)C3)C4)nc2c1`, 2.86%.
With `Cl.O=C(NC(=S)NC1CCN(Cc2ccccc2)CC1)c1ccc(F)cc1` the figure was -57.5%; with `CCc1c(C)sc(NC(=S)N2CCN(S(C)(=O)=O)CC2)c1C(=O)OC`, 2.61%; with `Cc1ccccc1CN(c1ccc(C(=O)NCC2CCCO2)cc1)S(C)(=O)=O` (stereo not drawn), 8.61%.
Consider `Cc1ccc(Oc2nc(-c3cccnc3)nc3ccccc23)c([N+](=O)[O-])n1`, for which the “hERG current change (%, negative = inhibition) at 1uM” value was determined as 10.2%.
With `CCOc1ccc2nc(NCCCO)[nH]c2c1` the figure was 14.9%; with `CC(=O)c1c(C(C)=O)c(C)n(NC(=O)c2ccc(Cl)cc2)c1C`, 17.5%; with `COCCNc1nnc(SCC(=O)Nc2sc3c(c2C(=O)c2ccccc2)CCCC3)s1`, 1.79%.
For `COC(=O)C(C(=O)OC)c1ccc(N)cc1` the value was 7.62%; for `COc1ccc(C(=O)Nc2ccc(NC(=O)CSc3nnc(-c4ccncc4)n3C)cc2)cc1`, -1.89%; for `CCOC(=O)N1CCN(C(=O)CCCCCn2c(=S)[nH]c3ccsc3c2=O)CC1`, 3.36%.
Take `CC(C)OCCCNC(=O)CN1C(=O)/C(=C/c2ccccc2F)Oc2ccccc21`: the “hERG current change (%, negative = inhibition) at 1uM” value turned out to be 6.64%.
For `COc1cccc2cc(C(=O)N(C)C)c(=O)oc12` the value was 11.6%; for `O=c1oc2ccccc2n1CCCOc1ccccc1`, -14.3%.
Consider `Cc1ccc2c(c1)N(C(=O)CCC(=O)Nc1ccccc1Br)CC(C)O2` (stereo not drawn), for which the “hERG current change (%, negative = inhibition) at 1uM” value is 9.85%.
Consider `Cc1csc(N2CCCC2c2nc3cc(C(F)(F)F)ccc3n2CCOCCO)n1` (stereo not drawn), for which the “hERG current change (%, negative = inhibition) at 1uM” value is -62.8%.
For `CC1CCN(C(=O)CCc2ccc(S(=O)(=O)NC(C)C)cc2)CC1` the value was 10.7%; for `CCN(CC(=O)NCc1cccs1)S(=O)(=O)c1ccc(F)c(F)c1F`, 9%; for `O=C(CCC1N=C2c3ccccc3N=C(SCc3ccc(F)cc3)N2C1=O)NCc1ccco1` (stereo not drawn), -22.5%.
Turning to `Cc1ccc(-c2nc3ncccc3o2)cc1NC(=O)c1cccnc1`, the “hERG current change (%, negative = inhibition) at 1uM” value is -2.14%.
With `COc1ccc2cc(CN(CCCN3CCOCC3)Cc3nnnn3C3CCCC3)c(=O)[nH]c2c1` the figure was -1.7%.
For `CCC(C)[C@H](N)c1cn([C@@H](Cc2ccc(O)cc2)C(=O)N2CCNCC2)nn1.Cl` (stereo partly drawn) the value was 12.8%; for `COc1ccc(N2CCN(C(=O)CCCn3c(=S)[nH]c4cc5c(cc4c3=O)OCO5)CC2)cc1`, 9.64%.
As for `O=C(O)CSc1nnc(C2CC2)n1-c1ccccc1`, the “hERG current change (%, negative = inhibition) at 1uM” value was found to be 8.01%.
With `Cc1ccc(C)c(/C=N/NC(=S)NCCc2ccccc2)c1` the figure was 7.28%.
For `O=C(c1sccc1-n1cccc1)N1CCCC1` the value was 13%; for `CC(C)CNC(=O)/C=C/C(=O)O`, 11.3%; for `O=C(COC(=O)c1ccc2c(c1)C(=O)N(Cc1ccco1)C2=O)NCC(F)(F)F`, 3.39%.
With `O=C(CNC(=O)C12CC3CC(CC(C3)C1)C2)Nc1ncccc1O`, the “hERG current change (%, negative = inhibition) at 1uM” value is given as -3.13%.
On to `CCOc1ccc(N2C(=O)/C(=C/c3cccs3)N(CC(=O)OC)C2=S)cc1`, for which the “hERG current change (%, negative = inhibition) at 1uM” value came to 0.989%.
With `COC/C=C1\CN2C3C[C@@H]1[C@H]1COC4=Nc5cc(OC)c(OC)c(OC)c5[C@@]43C[C@@H]12` the figure was 7.63%; with `O=C(Nc1cccnc1)c1ccc(-c2cc(Cl)ccc2Cl)o1`, 12.1%.
With `O=C(O)CCCNS(=O)(=O)c1ccc2c(c1)OCCCO2` the figure was 5.3%; with `COCCOC(=O)c1c(C)oc2ccc(NS(=O)(=O)c3ccc(F)cc3)cc12`, 7.54%; with `COc1ccc(N2CCN(C(=O)CNC(=O)Cn3c(C)cc4ccccc4c3=O)CC2)cc1`, 10.1%.
On to `O=C(NC1CCCCC1)c1ccc(CS(=O)Cc2ccc(Cl)cc2)o1` (stereo not drawn), for which the “hERG current change (%, negative = inhibition) at 1uM” value is -6.07%.
With `O=C(NCc1ccc2c(c1)OCO2)c1cc2ccccc2oc1=O` the figure was 5.23%; with `CCOC(=O)c1nc(-c2ccc3c(c2)OCO3)[nH]c1C`, 1.6%; with `O=C(c1cc2ccccc2oc1=O)N(Cc1ccc2c(c1)OCO2)Cc1ccco1`, -15.5%.
As for `CC(OC(=O)c1ccc(NC(=O)CC#N)cc1)C(=O)Nc1ccc(Oc2ccccc2)cc1` (stereo not drawn), the “hERG current change (%, negative = inhibition) at 1uM” value is 11.1%.
With `CCOc1ccccc1NC(=O)N1CCC(NC(=O)c2ccccc2C)CC1` the figure was 9.93%; with `COCCn1nnnc1C(c1cc2cc(C)cc(C)c2[nH]c1=O)N1CCN(c2ccccc2F)CC1` (stereo not drawn), -4.32%.
For `COc1ccc(S(=O)(=O)/C(C#N)=C/Nc2cccc(F)c2)cc1` the value was 12.9%.
With `COc1ccccc1NC(=O)N1c2ccccc2NC(=O)CC1C` (stereo not drawn) the figure was 9.35%; with `N#CCCN(Cc1ccccc1)C(=O)c1cccs1`, 12.5%; with `CS(=O)(=O)c1ccc(Cl)c(NC(=O)CN2C(=O)C3CCCCC3C2=O)c1` (stereo not drawn), 8.07%.
Take `O=C(NCCN1CCOCC1)c1ccncc1`: the “hERG current change (%, negative = inhibition) at 1uM” value came out at 8.53%.
With `CNc1nc2c(Cl)cc(Cl)cc2s1` the figure was 11.7%; with `COC(=O)c1nn(-c2ccccc2)c(Cl)c1/C=N/OCc1c(Cl)cccc1Cl`, 10.3%.
With `CCOC(=O)/C(C#N)=C\N(C)C`, the “hERG current change (%, negative = inhibition) at 1uM” value is given as 25.7%.
